# Publication PMC10726135
# The other results are listed elsewhere or left out. At the low end of the ranking the order means little. The protein was read in a cell extract, so binding may be indirect.
# Target: T1, HNF4alpha8 (COS-7 nuclear extract) (UniProt P41235-5)
# T1 sequence: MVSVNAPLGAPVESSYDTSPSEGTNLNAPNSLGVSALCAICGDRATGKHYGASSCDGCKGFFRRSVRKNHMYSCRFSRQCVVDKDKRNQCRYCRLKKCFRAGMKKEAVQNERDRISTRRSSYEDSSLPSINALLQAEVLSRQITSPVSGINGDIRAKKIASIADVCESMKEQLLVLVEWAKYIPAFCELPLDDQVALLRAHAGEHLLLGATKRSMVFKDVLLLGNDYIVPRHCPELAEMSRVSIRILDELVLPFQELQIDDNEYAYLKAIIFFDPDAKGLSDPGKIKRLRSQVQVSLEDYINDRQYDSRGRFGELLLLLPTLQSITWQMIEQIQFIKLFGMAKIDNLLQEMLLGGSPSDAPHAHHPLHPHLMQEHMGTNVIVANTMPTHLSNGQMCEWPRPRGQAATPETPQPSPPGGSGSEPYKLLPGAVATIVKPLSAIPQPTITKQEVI
# Assay: protein-binding microarray
# Details: COS-7 nuclear extract on double-stranded Agilent 4x180k PBM; binding buffer, salt, pH and temperature not given; high values mean tight binding; double strand, one strand shown; sequences stand for … in …GCCTAGGGAGATTAGAGTATCGGTCGA
row,Sequence,binding signal (log2 normalized intensity)
1,GCTGGAAAGGCCACCACAAACCCTTCATCC,-1.35
2,GGCACAGGTCAAAAATGATGCCTGACTCAA,-1.35
3,CCTTTGAGGAGGCCTTTCCTGACCCCTCCT,4.78
4,AGAGCAGCTAGTAGGAGCGGGCTTAACTAG,-1.3
5,CATCATCTGTTTGTACGCGTCGAACTAGCT,-1.29
6,AGGGTCTGGTTCCAAAGTCTGCAGATTAAA,2.13
7,CTTAGAGATAATGGGGGAGCCACTGCAGCT,-1.3
8,ATCTCACAGATTAAGTCACGTGGAGATAAC,0.759
9,CAACTGGTATGTTAGATTAGTGTGCAGCTT,0.325
10,ATTCAGCATTGCTTGGGAGCAGTCCTTGGG,-0.959
11,AGAGGCACCAAGGCCGGAAAAGATTAGATT,-0.767
12,GAGAGAGAGAATAGCTCAGGTCCAAGGAAC,-1.23
13,GCACACTCGCCTGGCTCCCCACGTGGCAAT,-1.36
14,CTCCACCTGGAGGGACTTTGTCCCACAGGA,4.52
15,CGCCGCGGGCGCCCTGGTCTCTGCTACCTG,-1.34
16,GTGACCTTTGCTCCAGTTCCCAATAAGTTG,5.13
17,TGGCCCAAGGCCTCTGACATAAATCACATT,-1.32
18,TCCAAGATCCAACTCTGAAGATTCACAGGT,-1.26
19,ACAAGCAACCCTCCTCCCTTTGGCCATGAA,1.33
20,GCCCCTGGCTGGGCCCTGACCTCAAGTGAC,2.6
21,GATGCCATTCCCTGCAGGTGAAACTCCAGG,-1.31
22,TTGTGCTAGAAAGAATGAGAAGGGCTAATA,-0.86
23,CATTGTTGGGATAAAATTCAACAGAGCTAT,-1.36
24,CCACTTACCACCCACAGAGGGGGTTTGTTT,-1.12

row,Sequence,binding signal (log2 normalized intensity)
1,AGAAAACACAGAGATCTGATCAAAGGTCAT,6.61
2,TCTCTACGACTTGCTTATCTTACGCAACTG,0.377
3,GGTGAAGGGGTCACCTCGCTCCCCTCCTGT,1.02
4,TAGGGAAAATAGTGACCCTGTCTCTCAGTC,1.62
5,CATACTTCTTCCTGTTTGACCTTCGAACCC,10.1
6,CTCACCTGGATGTTTTGATGAACTTTCAAG,2.14
7,GCACAGTGCCTGGCATGTGATAGGCATGCA,0.293
8,CTGCACAGCATAGAAAACAAGTTAGACAGT,-1.28
9,CTAGGAGACAACTTAGAATTTCATTTTGCT,-1.27
10,CTTACTTTTATCAGGTAAAGATATGGAACA,1.45
11,ATCTCTGTGGGAGGGAAGGAGCCTAACTTT,-1.44
12,GGTTTTCTTGCAAACATTACTGGCACACAG,0.466
13,CTTCCAGAAATGCCAAGATCAGGGCTAAGA,-1.36
14,CTCTTATCTGAATGTATGGGCTATTTATGA,1.01
15,CTTTTTAGGAAACATTTCCATTGAAGCAGA,-1.37
16,CCTAACTTGTGGCTGGGTGATCTGGGAAAC,0.235
17,GAGGTCACAACAGAAAGCAAGAGCACAAGA,-1.31
18,TCAAATATGTCTCTCCTATTCAGGTATTTG,1.98
19,CTCCCTTGCACCAGTTTCTCAACAGACCCC,2.95
20,AAAGGGTCTTAGTATTAACGGTGAGGGAGG,-0.902
21,ACCACATTCTCACCACTAGGAAACTGACCT,3.77
22,TCATGTCACGTTGGGGGTGCTGATGTTAAC,0.934
23,GGTCTGCAATCTAAGTCTGGCTCCTGAAAC,-1.39
24,ACACTCCTTGTTCTCAGAGATCAAAGGTGA,5.18

row,Sequence,binding signal (log2 normalized intensity)
1,GCATGGAATGACTTTGGGGAAATGACCTTT,7.96
2,TGGGGTATGTGCTCACTCCTGGGACAAGGA,-1.38
3,GGGCTTCCAGGCTTGGAGCCCCTTTGGAGG,-0.84
4,AGCAATAGGAAATGGGAGGGTAAATTCCTT,-0.0321
5,GCTTGAAAAGTCTTTCTGCCAAAGTTCAGC,2.55
6,TCGCAGACTTTGGACTCTGCAAGGAAGGTG,6.04
7,GAGGTTTTCATCCCAGGGCTGGGGAAACAA,-1.26
8,GAGCCTGCACGCCTGTTCACATTCCAGTGT,-1.05
9,GAAACGGGATTTCTTTATATTATGCTAGAC,-0.119
10,TACGAAGGGTTTAAAGGGCAGAAGAAGGGA,1.19
11,ACTGACTGCTTTATCAGTGTAGTTTGAAGC,0.518
12,AGGTTCCATGGTGTAATGGTTAGCACTCTG,1.1
13,CAAACATTAGCTGCAGATTCCACCTTAGAG,-1.29
14,GTATCTGACTTTATCATTGGACTCTCTCAT,3.43
15,AGCCAGGCAGTCGGGAAATTCCAGCAGGAA,-1.26
16,CAATATCGCAGTCATAAATACTCATTATGT,-0.0837
17,TCTGTTGTGTCAAAGGTCACTTAGTCCCTA,5.3
18,ATGTATGCATAGACTGCCCAGAATTTCCTG,-1.31
19,GGTCTAAGGGCAAGTGACTGATAAGGCTAA,-1.28
20,ATAACCTACTTAAAAAGAAATAGCCTGAAA,-1.36
21,ATGGTGCTGGCGGGAGCATAGCAGCGAGGA,-1.38
22,CTCAAGCTCTCCTCTTATCAGGCAGGATAT,0.105
23,CCTAGGGGGAAGCCCCTGCTTCCGGACACA,-1.33
24,TACGCAAGTGGTACCTCCCGAAAGTGACCC,5.07

row,Sequence,binding signal (log2 normalized intensity)
1,GAATTAACTAAAAGTATCTAAGGGCCTAGA,-1.3
2,CCACAGCGTTTTCCTCCAGCCTGTCGGAAT,-1.16
3,TTGATCCAGGATCCTTCTTGACCAGGCAAG,0.747
4,GCTACAACTGGACTAGACAGGCTTGTCGAG,-1.37
5,GGAAATGAATTGATAAACACTTGCCTACTT,-1.26
6,TCTTGTAAGGTTCTTGTATCTGATCTGTGT,2.18
7,CATCTCAAAGGCATTTTTTGTAGATGCCTG,0.625
8,GAAACCTAGGAGTTATCTAAGACCCATCCC,1.43
9,GGGGGTTTGCAACCTTTGATAACCTACAAC,1.37
10,TCAATCCTGGCCTCTGAGGTGTTAACCTGA,1.11
11,ATTATCAGTAACTCACTATCAGGAAACTCT,-1.07
12,CAAGCAAACACACTTGCTCTAATCCTTTAA,-1.31
13,TTCGGTGTCATCTAGACCTGGACTTGAAGC,2.35
14,CTTCCTCATGATCGCTTCCAGGGTTACCGG,-0.0281
15,CAGTGGGGGGGGGGGGGGGGGTGTGTCTGT,0.963
16,TCTTCCTTTCTATCAGCTCTCCGTGGACTT,3.52
17,CTGAGCAGGGTCCAACCCACAGGGGTAGAA,0.648
18,TTTCCTGCCTGCCGGCTCTGAAGAGAACGG,-1.31
19,CTAGCTCACTGATAAGAAAGGCTTCTGGGA,-1.23
20,AAAAATATTGAACAAAGATTGCTTGCCAGT,-0.819
21,ACTGGAAGCAAGCCCTATTAGGCATTTCAT,-1.21
